Measured values taken from the supplement of paper PMC4967469.
The IC50 comes from the fitted curve, where viability falls to half of the control; where the fit passes the top or lowest dose, that dose stands as a limit. For AUC the same curve is integrated over the 256-fold range of doses and scaled to a fraction; it is 1 without any effect and falls as sensitivity rises. For some assays here: An inferred top dose comes from the curve model; the source does not state it.

Key:
Assay in all cases: Viability of human cancer cell lines after 72 h of drug (GDSC screen)
GW 441756 = compound: Cn1cc(/C=C2\C(=O)Nc3cccnc32)c2ccccc21 [GW 441756]; details: top dose 2 µM; top dose inferred
Method: (§1)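 Human cancer cell lines in 384-well plates, medium with 10% serum, drug for 72 h over a 256-fold dose range (nine 2-fold or five 4-fold steps up to the top dose). Adherent lines were fixed and stained with the nucleic acid dye Syto60, suspension lines read with resazurin; signal relative to control wells, capped at 0 and 100%. One two-parameter sigmoid per drug and line, fitted in a mixed model over all curves with the slope shared within a line.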

ABT-263 = compound: CC1(C)CCC(c2ccc(Cl)cc2)=C(CN2CCN(c3ccc(C(=O)NS(=O)(=O)c4ccc(N[C@H](CCN5CCOCC5)CSc5ccccc5)c(S(=O)(=O)C(F)(F)F)c4)cc3)CC2)C1 [ABT-263]; details: top dose 2 µM; top dose inferred
Method: as §1

PIK-93 = compound: CC(=O)Nc1nc(C)c(-c2ccc(Cl)c(S(=O)(=O)NCCO)c2)s1 [PIK-93]; details: top dose 20 µM
Method: as §1

piperlongumine = compound: COc1cc(/C=C/C(=O)N2CCC=CC2=O)cc(OC)c1OC [piperlongumine]; details: top dose 10 µM
Method: as §1

| Cell Line | AUC (GW 441756) | IC50 (GW 441756) [nM] | AUC (ABT-263) | IC50 (ABT-263) [nM] | AUC (PIK-93) | IC50 (PIK-93) [nM] | AUC (piperlongumine) | IC50 (piperlongumine) [nM] |
| --- | --- | --- | --- | --- | --- | --- | --- | --- |
| SW1710 (bladder, adherent) | 0.983 | > 2000 | 0.959 | > 2000 | 0.693 | 4420 | 0.683 | 2060 |
| AGS (stomach, adherent) | 0.955 | > 2000 | 0.456 | 96 | 0.884 | 17800 |  |  |
| SK-MEL-3 (melanoma, adherent) | 0.961 | > 2000 | 0.984 | > 2000 | 0.781 | 9710 | 0.933 | > 10000 |
| 5637 (bladder, adherent) | 0.988 | > 2000 | 0.921 | > 2000 | 0.783 | 7590 | 0.834 | 5660 |
| C32 (melanoma, adherent) | 0.824 | 1300 | 0.881 | > 2000 | 0.986 | > 20000 | 0.754 | 3580 |
| NCI-H3122 (lung adenocarcinoma, adherent) | 0.978 | > 2000 | 0.976 | > 2000 | 0.854 | 16500 |  |  |
| SAT (head and neck, adherent) | 0.796 | 1600 | 0.855 | > 2000 | 0.831 | > 20000 |  |  |
| NCI-H2052 (mesothelioma, adherent) | 0.983 | > 2000 | 0.822 | 1630 | 0.944 | > 20000 |  |  |
| MKN28 (stomach, adherent) | 0.969 | > 2000 | 0.945 | > 2000 | 0.913 | > 20000 |  |  |
| KATOIII (stomach, semi-adherent) | 0.947 | > 2000 | 0.986 | > 2000 |  |  | 0.866 | 7720 |
| EW-22 (Ewing sarcoma, adherent) | 0.98 | > 2000 | 0.698 | 440 |  |  | 0.851 | 7180 |
| Jurkat (T-cell leukaemia, suspension) | 0.993 | > 2000 | 0.94 | > 2000 |  |  | 0.809 | 4100 |
| MHH-CALL-2 (B-cell leukaemia, suspension) | 0.997 | > 2000 | 0.982 | > 2000 |  |  | 0.865 | 5260 |
| CML-T1 (chronic myeloid leukaemia, suspension) | 0.991 | > 2000 | 0.539 | 156 |  |  | 0.814 | 4330 |
| MOLM-16 (acute myeloid leukaemia, suspension) | 0.956 | > 2000 | 0.586 | 208 |  |  | 0.749 | 2910 |
| HCC-366 (non-small cell lung carcinoma, adherent) | 0.96 | > 2000 | 0.727 | 568 |  |  | 0.885 | > 10000 |
| MOLT-16 (T-cell lymphoblastic leukaemia, suspension) | 0.992 | > 2000 | 0.775 | 636 |  |  | 0.624 | 1270 |
| NCI-H647 (non-small cell lung carcinoma, adherent) | 0.985 | > 2000 | 0.948 | > 2000 | 0.753 | 6950 |  |  |
| OCUM-1 (stomach, adherent) | 0.932 | > 2000 | 0.575 | 206 | 0.982 | > 20000 |  |  |

| Cell Line | AUC (GW 441756) | IC50 (GW 441756) [nM] | AUC (ABT-263) | IC50 (ABT-263) [nM] | AUC (PIK-93) | IC50 (PIK-93) [nM] | AUC (piperlongumine) | IC50 (piperlongumine) [nM] |
| --- | --- | --- | --- | --- | --- | --- | --- | --- |
| RH-18 (rhabdomyosarcoma, adherent) | 0.981 | > 2000 | 0.416 | 71.2 |  |  | 0.814 | 6490 |
| H290 (mesothelioma, adherent) | 0.897 | > 2000 | 0.971 | > 2000 |  |  | 0.785 | 3900 |
| DIFI (large intestine, adherent) | 0.959 | > 2000 | 0.857 | 1730 |  |  | 0.859 | 8810 |
| Hep 3B2_1-7 (liver, adherent) | 0.98 | > 2000 | 0.688 | 420 |  |  | 0.703 | 2330 |
| NCI-H1105 (small cell lung carcinoma, suspension) | 0.993 | > 2000 | 0.308 | 40.4 |  |  | 0.834 | 4950 |
| IGROV-1 (ovary, adherent) | 0.93 | > 2000 | 0.976 | > 2000 |  |  | 0.82 | 9730 |
| MEL-HO (melanoma, adherent) | 0.984 | > 2000 | 0.922 | > 2000 |  |  | 0.574 | 995 |
| JEKO-1 (B-cell lymphoma, suspension) | 0.987 | > 2000 | 0.792 | 861 |  |  | 0.747 | 3080 |
| KYSE-140 (oesophagus, adherent) | 0.826 | 1440 | 0.937 | > 2000 | 0.817 | 13100 |  |  |
| BT-549 (breast, adherent) | 0.864 | > 2000 | 0.978 | > 2000 |  |  | 0.65 | 1930 |
| NCI-H508 (large intestine, semi-adherent) | 0.976 | > 2000 | 0.726 | 874 |  |  | 0.763 | 6370 |
| JHU-029 (head and neck, adherent) | 0.902 | > 2000 | 0.87 | > 2000 |  |  | 0.655 | 1870 |
| PA-1 (ovary, adherent) | 0.993 | > 2000 | 0.929 | > 2000 | 0.611 | 2350 |  |  |
| CL-40 (large intestine, adherent) | 0.975 | > 2000 | 0.924 | > 2000 |  |  | 0.874 | > 10000 |
| MIA-PaCa-2 (pancreas, adherent) | 0.913 | > 2000 | 0.913 | > 2000 | 0.981 | > 20000 |  |  |
| NCI-H929 (myeloma, suspension) | 0.982 | > 2000 | 0.952 | > 2000 |  |  | 0.803 | 4120 |
| BALL-1 (B-cell leukaemia, suspension) | 0.997 | > 2000 | 0.389 | 67.2 |  |  | 0.862 | 5020 |
| SK-GT-2 (stomach, adherent) | 0.973 | > 2000 | 0.679 | 406 |  |  | 0.777 | 4240 |
